# Reference: the supplement of paper PMC8728848
# This is one part of the list.
# B1: AAA (Anguilla anguilla), Q7SIC1 (protein)
# chain: VIPEGYTQENVAVRGKATQSAQLRGEHAANSEASNAIDGNRDSNFYHGSCTHSSGQANPWWRVDLLQVYTITSVTITNRGDCCGERISGAEINIGQHLASNGVNNPECSVIGSMATGETKTFHCPAPMIGRYVVTYLPTSESLHLCEVEVNVDKPAAA
# What was measured:
# Assay in all cases: glycan array binding signal (z-score within array); higher = stronger binding
# Settings in all cases: glycan notation: IUPAC condensed, linker removed
# [1] = molecular target: Gal3S(b1-4)[Fuc(a1-3)]GlcNAc6S
# Procedure, shortened: (§1)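 The binding signal is a Z-score computed within each array. Data were drawn from 3228 arrays in the Consortium for Functional Glycomics database, restricted to those with a known protein sequence. Scores were averaged over arrays of the same protein sequence at different concentrations or buffers, and over linkers, and negative values can be taken as non-binding.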
# Gal3S4S(b1-4)GlcNAc = molecular target: Gal3S4S(b1-4)GlcNAc
# Procedure, shortened: as §1
# Gal3S6S(b1-4)GlcNAc = molecular target: Gal3S6S(b1-4)GlcNAc
# Procedure, shortened: as §1
# Gal3S6S(b1-4)GlcNAc6S = molecular target: Gal3S6S(b1-4)GlcNAc6S
# Procedure, shortened: as §1
# Gal4S(b1-4)GlcNAc = molecular target: Gal4S(b1-4)GlcNAc
# Procedure, shortened: as §1
# Gal4S6S(b1-4)GlcNAc = molecular target: Gal4S6S(b1-4)GlcNAc
# Procedure, shortened: as §1
# Gal6P(b1-4)GlcNAc = molecular target: Gal6P(b1-4)GlcNAc
# Procedure, shortened: as §1
# Gal6S(b1-3)GlcNAc = molecular target: Gal6S(b1-3)GlcNAc
# Procedure, shortened: as §1
# Gal6S(b1-3)GlcNAc6S = molecular target: Gal6S(b1-3)GlcNAc6S
# Procedure, shortened: as §1
# Gal6S(b1-4)Glc = molecular target: Gal6S(b1-4)Glc
# Procedure, shortened: as §1
# Gal6S(b1-4)Glc6S = molecular target: Gal6S(b1-4)Glc6S
# Procedure, shortened: as §1
# Gal6S(b1-4)GlcNAc = molecular target: Gal6S(b1-4)GlcNAc
# Procedure, shortened: as §1
# Gal6S(b1-4)GlcNAc6S = molecular target: Gal6S(b1-4)GlcNAc6S
# Procedure, shortened: as §1
# GalNAc(a1-3)Gal = molecular target: GalNAc(a1-3)Gal
# Procedure, shortened: as §1
# GalNAc(a1-3)GalNAc = molecular target: GalNAc(a1-3)GalNAc
# Procedure, shortened: as §1
# [2] = molecular target: GalNAc(a1-3)GalNAc(a1-3)Gal(a1-4)Gal(b1-4)GlcNAc
# Procedure, shortened: as §1
# [3] = molecular target: GalNAc(a1-3)GalNAc(b1-3)Gal(a1-4)Gal(b1-4)Glc
# Procedure, shortened: as §1
# GalNAc(b1-3)Gal = molecular target: GalNAc(b1-3)Gal
# Procedure, shortened: as §1
# [4] = molecular target: GalNAc(b1-3)Gal(a1-4)Gal(b1-4)GlcNAc
# Procedure, shortened: as §1
# [5] = molecular target: GalNAc(b1-3)Gal(a1-4)Gal(b1-4)GlcNAc(b1-3)Gal(b1-4)Glc
# Procedure, shortened: as §1
# [6] = molecular target: GalNAc(b1-3)Gal(a1-6)Gal(b1-4)Glc
# Procedure, shortened: as §1
# GalNAc(b1-3)GalNAc = molecular target: GalNAc(b1-3)GalNAc
# Procedure, shortened: as §1
# GalNAc(b1-3)GlcNAc = molecular target: GalNAc(b1-3)GlcNAc
# Procedure, shortened: as §1
# GalNAc(b1-4)Gal(b1-4)Glc = molecular target: GalNAc(b1-4)Gal(b1-4)Glc
# Procedure, shortened: as §1
# GalNAc(b1-4)GlcNAc = molecular target: GalNAc(b1-4)GlcNAc
# Procedure, shortened: as §1
# [7] = molecular target: GalNAc(b1-4)GlcNAc(b1-2)Man
# Procedure, shortened: as §1
# [8] = molecular target: GalNAc(b1-4)GlcNAc(b1-2)Man(a1-3)[GalNAc(b1-4)GlcNAc(b1-2)Man(a1-6)]Man(b1-4)GlcNAc(b1-4)GlcNAc
# Procedure, shortened: as §1
# [9] = molecular target: GalNAc(b1-4)GlcNAc(b1-3)GalNAc(b1-4)GlcNAc
# Procedure, shortened: as §1
# GalNAc(b1-4)GlcNAc6S = molecular target: GalNAc(b1-4)GlcNAc6S
# Procedure, shortened: as §1
# GalNAc(b1-6)GalNAc = molecular target: GalNAc(b1-6)GalNAc
# Procedure, shortened: as §1
# GalNAc3S(b1-4)GlcNAc = molecular target: GalNAc3S(b1-4)GlcNAc
# Procedure, shortened: as §1
# GalNAc3S(b1-4)GlcNAc3S = molecular target: GalNAc3S(b1-4)GlcNAc3S
# Procedure, shortened: as §1
# [10] = molecular target: GalNAc3S(b1-4)[Fuc(a1-3)]GlcNAc
# Procedure, shortened: as §1
# GalNAc4S6S(b1-4)GlcNAc = molecular target: GalNAc4S6S(b1-4)GlcNAc
# Procedure, shortened: as §1
# GalNAc6S(b1-4)GlcNAc = molecular target: GalNAc6S(b1-4)GlcNAc
# Procedure, shortened: as §1
# Glc(a1-4)Glc = molecular target: Glc(a1-4)Glc
# Procedure, shortened: as §1
# [11] = molecular target: Glc(a1-4)Glc(a1-4)Glc(a1-4)Glc
# Procedure, shortened: as §1
# Glc(a1-6)Glc(a1-6)Glc = molecular target: Glc(a1-6)Glc(a1-6)Glc
# Procedure, shortened: as §1
# [12] = molecular target: Glc(a1-6)Glc(a1-6)Glc(a1-6)Glc
# Procedure, shortened: as §1
# Glc(b1-4)Glc = molecular target: Glc(b1-4)Glc
# Procedure, shortened: as §1
# Glc(b1-6)Glc = molecular target: Glc(b1-6)Glc
# Procedure, shortened: as §1
# GlcA(b1-3)Gal = molecular target: GlcA(b1-3)Gal
# Procedure, shortened: as §1
# GlcA(b1-3)GlcNAc = molecular target: GlcA(b1-3)GlcNAc
# Procedure, shortened: as §1
# GlcA(b1-6)Gal = molecular target: GlcA(b1-6)Gal
# Procedure, shortened: as §1
# [13] = molecular target: GlcA3S(b1-3)Gal(b1-4)GlcNAc(b1-2)Man
# Procedure, shortened: as §1
binder,measurement,setting,value
B1,glycan array binding signal (z-score),[1],-0.154
same,glycan array binding signal (z-score),Gal3S4S(b1-4)GlcNAc,-0.191
same,glycan array binding signal (z-score),Gal3S6S(b1-4)GlcNAc,-0.09
same,glycan array binding signal (z-score),Gal3S6S(b1-4)GlcNAc6S,-0.044
same,glycan array binding signal (z-score),Gal4S(b1-4)GlcNAc,-0.077
same,glycan array binding signal (z-score),Gal4S6S(b1-4)GlcNAc,-0.151
same,glycan array binding signal (z-score),Gal6P(b1-4)GlcNAc,-0.388
same,glycan array binding signal (z-score),Gal6S(b1-3)GlcNAc,-0.275
same,glycan array binding signal (z-score),Gal6S(b1-3)GlcNAc6S,-0.273
same,glycan array binding signal (z-score),Gal6S(b1-4)Glc,-0.307
same,glycan array binding signal (z-score),Gal6S(b1-4)Glc6S,0.034
same,glycan array binding signal (z-score),Gal6S(b1-4)GlcNAc,-0.291
same,glycan array binding signal (z-score),Gal6S(b1-4)GlcNAc6S,-0.292
same,glycan array binding signal (z-score),GalNAc(a1-3)Gal,-0.207
same,glycan array binding signal (z-score),GalNAc(a1-3)GalNAc,-0.17
same,glycan array binding signal (z-score),[2],-0.227
same,glycan array binding signal (z-score),[3],-0.206
same,glycan array binding signal (z-score),GalNAc(b1-3)Gal,-0.159
same,glycan array binding signal (z-score),[4],-0.214
same,glycan array binding signal (z-score),[5],-0.262
same,glycan array binding signal (z-score),[6],-0.072
same,glycan array binding signal (z-score),GalNAc(b1-3)GalNAc,-0.16
same,glycan array binding signal (z-score),GalNAc(b1-3)GlcNAc,-0.333
same,glycan array binding signal (z-score),GalNAc(b1-4)Gal(b1-4)Glc,-0.076
same,glycan array binding signal (z-score),GalNAc(b1-4)GlcNAc,1.89
same,glycan array binding signal (z-score),[7],1.78
same,glycan array binding signal (z-score),[8],0.974
same,glycan array binding signal (z-score),[9],3.34
same,glycan array binding signal (z-score),GalNAc(b1-4)GlcNAc6S,0.254
same,glycan array binding signal (z-score),GalNAc(b1-6)GalNAc,-0.222
same,glycan array binding signal (z-score),GalNAc3S(b1-4)GlcNAc,-0.231
same,glycan array binding signal (z-score),GalNAc3S(b1-4)GlcNAc3S,-0.254
same,glycan array binding signal (z-score),[10],-0.2
same,glycan array binding signal (z-score),GalNAc4S6S(b1-4)GlcNAc,-0.264
same,glycan array binding signal (z-score),GalNAc6S(b1-4)GlcNAc,0.974
same,glycan array binding signal (z-score),Glc(a1-4)Glc,-0.131
same,glycan array binding signal (z-score),[11],-0.058
same,glycan array binding signal (z-score),Glc(a1-6)Glc(a1-6)Glc,-0.236
same,glycan array binding signal (z-score),[12],-0.135
same,glycan array binding signal (z-score),Glc(b1-4)Glc,-0.247
same,glycan array binding signal (z-score),Glc(b1-6)Glc,-0.235
same,glycan array binding signal (z-score),GlcA(b1-3)Gal,0.003
same,glycan array binding signal (z-score),GlcA(b1-3)GlcNAc,-0.25
same,glycan array binding signal (z-score),GlcA(b1-6)Gal,-0.349
same,glycan array binding signal (z-score),[13],-0.179
